From PubChem BioAssay AID1865 (National Center for Advancing Translational Sciences (NCATS), 2009)
Hit rate of the full screen: of about 280,000 compounds, about 540 (0.19%) were called active. This list was built around the results that the source calls inconclusive (neither active nor inactive); the mix of calls is not that of the screen. Calls follow the shape of the dose curve; as a rule, active = well fitted activation curve with a large enough effect; inconclusive = small, poorly fitted or top-dose-only effect; inactive = flat fitted curve, though single readings scatter. Where the call is inconclusive, the potency comes from a doubtful curve fit.

assay: Quantitative High-Throughput Screen for Regulators of Epigenetic Control; settings: murine LDR cells, GFP reporter derepression, 30 h; series mostly up to 53.9 µM; also: nearly all actives have a fitted effect of over 60% in size
In short: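 Murine LDR cells bearing a silenced CMV-driven GFP reporter were exposed to compound for 30 h at 37 C. After PBS washes, GFP-positive cells (20-120 um objects) counted by laser-scanning microplate cytometry.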
Potency is read from the fitted curve at half-maximal effect; tags tell the direction and shape of the fitted curve.

Compound	Potency
CC1=CC(=NOC(=O)c2cccc([N+](=O)[O-])c2)C=C(C)C1=O	inconclusive: 28.2 µM [activator, single point]
COc1ccccc1CNC(=O)CCCn1c(=O)c2ccccc2n(Cc2ccccc2C#N)c1=O	inconclusive: 35.5 µM [activator, single point]
Cc1cc2c(n1-c1ccc(C(=O)NCc3ccc(OC(C)C)cc3)cc1)CCCC2	inconclusive: 22.4 µM [activator, single point]
CC(C)N1CCc2c(sc(NC(=O)c3cc4cc([N+](=O)[O-])ccc4s3)c2C(N)=O)C1	inconclusive: 1.58 µM [activator, full curve]
C=C1C[C@H](OC(=O)C(C)(O)CCl)C2C(=C)C(=O)O[C@@H]2C2C1C[C@H](O)[C@]2(O)CCl (some centres not stated)	inconclusive: 3.55 µM [activator, single point]
CS(=O)(=O)Cc1nc2ccccc2oc1=O	inconclusive: 17.8 µM [activator, single point]
COc1ccc2cc(CNc3ccc(C)cc3)c(=O)n(CC(=O)Nc3cccc(C(F)(F)F)c3)c2c1	inactive
CCOc1ccc(OCc2ccc(C(=O)N/N=C(\C)c3ccccn3)cc2)cc1	inconclusive: 14.1 µM [activator, single point]
COc1ccc(C(=O)COC(=O)C2CCN(S(=O)(=O)c3cccc4cccnc34)CC2)cc1	inactive
CC(CNC(=S)Nc1cc(F)cc(F)c1)CSc1ccc(Cl)cc1 (configuration not stated)	inactive
COC(=O)N[C@@H](c1cccc(C)c1)[C@@H](C)[N+](=O)[O-]	inactive
COc1cc(C2C(C#N)=C(N)N(c3sc4c(c3C#N)CCCC4)C3=C2C(=O)CC(C)(C)C3)cc(OC)c1OC (configuration not stated)	inconclusive: 25.1 µM [activator, single point]
Cc1ccc(N2C(=O)C3CC(c4ccccc4)=C4C5C=CC(C6C(=O)N(c7ccc(C)cc7C)C(=O)C56)C4C3C2=O)c(C)c1 (configuration not stated)	inactive
CCOC(=O)CCCN1C(=O)CCn2nc(-c3cn(C)c4ccccc34)cc21	inactive
COCCCN=C1NN=C(c2cc(C)n(-c3ccccc3)c2C)CS1	inactive
COc1cccc(NC(=O)c2c(N3CCCC3=O)c3cc(C)ccc3n2C)c1	inactive
COc1ccc(C2c3c(ncn(CCCO)c3=N)Oc3ccc4ccccc4c32)cc1 (configuration not stated)	inconclusive: 3.16 µM [activator, single point]
COC(=O)N[C@H](c1ccccc1)[C@@]1(C)C[C@@H]1[C@@H](C)C(=O)Nc1ccc2ccccc2c1	inactive
CCN(CC)c1ccc2cc(-c3nc(-c4ccc(OC)cc4)cs3)c(=O)oc2c1	inconclusive: 0.126 µM [activator, full curve, poor fit]
CCOC(=O)c1c(NC(=O)CSc2ncccn2)sc2c1CCN(Cc1ccccc1)C2	inconclusive: 28.2 µM [activator, single point]
CCCN(CCC)S(=O)(=O)c1ccc(C(=O)OCCN2C(=O)c3cccc4c(N5CCOCC5)ccc(c34)C2=O)cc1	active: 25.1 µM

Compound	Potency
COc1ccc(C(=O)Nc2ccccc2C(=O)N/N=C/c2ccccn2)cc1OC	inconclusive: 25.1 µM [activator, single point]
COc1cc(/C=C/C(=O)c2ccccc2O)cc(OC)c1OC	inconclusive: 35.5 µM [activator, single point]
COc1cccc(C(=O)Nc2ccc(-c3nc4ccccc4o3)c(O)c2)c1	inconclusive: 14.1 µM [activator, single point]
CCCCC1=CC2=C(c3ccco3)C(=O)C(C)(OC(=O)c3ccc(OC)cc3)C(=O)C2=CN1Cc1ccc(OC)cc1 (configuration not stated)	inconclusive: 5.62 µM [activator, single point]
COc1ccc2oc(=O)c(-c3csc(Nc4ccc(O)cc4)n3)cc2c1	inconclusive: 31.6 µM [activator, single point]
Cn1c(Cn2nnc3ccccc32)nnc1SCC(=O)c1ccccc1F	inconclusive: 25.1 µM [activator, single point]
c1ccc2c(CSCCc3ccncc3)cccc2c1	inactive
Cc1n[nH]c(C)c1S(=O)(=O)N(CC(=O)N1CCc2ccccc21)c1ccc(C(C)C)cc1	inconclusive: 35.5 µM [activator, single point]
CCOc1ccc(C(=O)c2cn(CC(=O)Nc3ccc4c(c3)OCO4)c3ccc(OCC)cc3c2=O)cc1	inconclusive: 35.5 µM [activator, single point]
COc1ccc(/C=C/C=C2\NC(=S)NC2=O)cc1	inconclusive: 31.6 µM [activator, single point]
CCCCOc1ccc(CN2C(=O)C(=O)c3cc(Br)cc(C)c32)cc1OC	inactive
Cc1ccc(NC2=C/C(=N/S(=O)(=O)c3cccs3)c3ccccc3C2=O)cc1C	inactive
COC(=O)c1cc(NC(=O)CC2SC(=Nc3ccccc3)N(CCc3c[nH]c4ccccc34)C2=O)cc(C(=O)OC)c1 (configuration not stated)	inactive
O=C1CCN2C=Nc3cccc4ccc1c2c34	inactive
CCOc1ccc(CCNC(=O)c2ccc(Nc3nc4ccccc4n4nnnc34)cc2)cc1OCC	inconclusive: 35.5 µM [activator, single point]
CCOc1ccccc1NC(=O)Cn1c(=O)n(-c2ccccc2)c(=O)c2oc3ccccc3c21	inconclusive: 6.31 µM [activator, single point]
O=C(Nc1ccc(OC(=O)c2ccccc2)c(-c2nc3ccccc3s2)c1)c1ccccc1	inconclusive: 35.5 µM [activator, single point]
COc1ccc(-n2c(N)c(-c3nc4ccccc4n3C)sc2=S)cc1	inconclusive: 35.5 µM [activator, single point]
CCCN1C2CCCC1CC(NC(=O)c1ccc(F)cc1)C2 (configuration not stated)	inconclusive: 5.62 µM [activator, single point]
O=C(/C=C/c1cccc(Br)c1)N1CCN(c2cccc(C(F)(F)F)c2)CC1	inconclusive: 17.8 µM [activator, single point]
COC(=O)c1cc(O)cc(OC)c1C(=O)c1c(O)cc(C)cc1O	inactive
